From PubChem BioAssay AID1963576 (National Center for Advancing Translational Sciences (NCATS), 2024)
About 60 (0.1%) of roughly 46,000 compounds were called active. Inconclusive results (about 3%) are left out. Calls follow the shape of the dose curve; as a rule, active = well fitted inhibition curve with a large enough effect; inconclusive = small, poorly fitted or top-dose-only effect; inactive = no such curve, though single readings can be large or run the other way. Some of the results follow.

Assay: Primary qHTS assay for Inhibitors of ovarian cancer metastasis using an organotypic tumor microenvironment (TME) model. Also: nearly all actives have a fitted effect of over 65% in size.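 As to activity change, negative = inhibition: plate controls were DMSO wells for no effect and tomatine positive control wells for full effect.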
Conditions: SKOV3ip1-GFP adhesion/invasion on 3D omental model, fluorescence; series mostly up to 45.8 µM; activity change, negative = inhibition: at the top concentration
Procedure, shortened: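 Adhesion/invasion was scored as fixed GFP-labeled SKOV3ip1 cell counts (488/509 nm), normalized to DMSO and tomatine controls. Cancer cells in serum-free medium, with four compound doses (0.36-46 umol/L), sat 2 hr at RT then 16 hr at 37 C on a 48 hr fibroblast/mesothelial/ECM culture.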

outcome, inactive:
COc1cc(CNCCSc2nnnn2C)cc(Cl)c1OCc1ccccc1
Cc1ccccc1NC(=O)c1oc2c(c1C)-c1nn(Cc3cccc(Cl)c3)cc1CC2
CCCCN(CC)CCNC(=O)c1cc2c(=O)n(CC)c3ccccc3c2s1
CCOc1ccc(S(=O)(=O)Nc2cccc(-c3ccc(N4CCCC4)nn3)c2)cc1
COc1ccc(CCNC(=O)c2csc3c2CCCCC3)c(OC)c1
Cc1ccc(C)c(NC(=O)Cn2ncc3c([nH]c4ccccc43)c2=O)c1
CCc1ccc(CN(Cc2ccco2)C(=O)COc2ccccc2Cl)cc1
Cc1ccc(NC(=O)CSc2nnc(COc3ccc(Cl)cc3)o2)cc1
NC(=O)CN1C(=O)C2(SCC(=O)N2c2cccc(F)c2)c2ccccc21 (stereo unspecified)
CC(=O)OCc1cnc(C)c2oc(=O)c(C(=O)Nc3cc(F)ccc3C)cc12
CCCCN(CC)CCCNC(=O)Cn1nc(CC)n2c(cc3sccc32)c1=O
COc1ccc(Nc2ncnc3c2cnn3-c2cc(Cl)ccc2C)cc1OC
O=C(Cc1ccc(-c2ccccc2)cc1)NCCS(=O)(=O)N1CCN(c2cccc(Cl)c2)CC1
CCOc1ccc(Nc2sc(C(=O)c3ccc(F)cc3)c(N)c2S(=O)(=O)c2ccc(C)cc2)cc1
Cc1nc2cc(-c3ccc(Cl)cc3)nn2c(C)c1CCC(=O)N1CCN(c2ccccc2)CC1
COc1cc(Cl)c(C)cc1NC(=O)CNC(=O)Cn1ccc2ccccc2c1=O
COc1ccc(Cl)cc1NC(=O)c1ccc(CN2C(=O)CCn3nc(C)cc32)cc1
CCOc1ccc(C2C(=O)N(C3CCCCC3)CC(=O)N2Cc2ccccc2OC)cc1OC (stereo unspecified)
COCCCNc1nc2c(c(=O)n(Cc3ccccc3)c(=O)n2C)n1C

Activity change, negative = inhibition, inactive:
COc1ccc(CNC(=O)CS(=O)Cc2nc(-c3cccc(C)c3)oc2C)cc1 (stereo unspecified) 4.17%
Cc1nc(SCCOc2ccccc2F)[nH]c(=O)c1Cc1ccccc1 -5.12%
CCCCNc1nc2ccccc2c2nc(-c3ccccc3)nn12 1.27%
Cc1ccc(S(=O)(=O)NCC2CCC(C(=O)NCCCOC(C)C)CC2)cc1 (stereo unspecified) 6.25%
CCOC(=O)COc1ccc(/C=C(\C#N)c2nc3ccc(C)cc3[nH]2)cc1OC -7.42%
CCCCOc1ccc(C(=O)Nc2cc(-c3ccc(C)cc3)no2)cc1 10.3%
CCOC(=O)c1sc(N2C(=O)c3oc4ccccc4c(=O)c3C2c2ccc(C(C)(C)C)cc2)nc1C (stereo unspecified) 6.97%
Cc1ccccc1CNC(=O)Cn1c(C)c2cnn(-c3ccccc3)c(=O)c2c1C 12.8%
Cc1ccc2c(c1)-c1onc(C(=O)N(C)c3cccc(C(F)(F)F)c3)c1CO2 7.42%
CCc1nc2ccc(C(=O)NCc3ccc(OC)c(OC)c3)cc2nc1CC -0.279%
Cc1cccc(NC(=O)CSc2nc(-c3cccc(C)c3)nc3c2Cc2c(CO)cnc(C)c2O3)c1 -3.9%
CC1(C)Cc2c(c(N3CCOCC3)nc3sc(C(=O)Nc4ccc(Cl)cc4)c(N)c23)CO1 -1.7%
Cc1ccc2c(CC(=O)Nc3cccc(C(F)(F)F)c3)coc2c1 -10.6%
Cc1ccc(CNC(=O)c2ccc3c(c2)CCN3S(=O)(=O)c2ccccc2)cc1 0.882%
Cc1oc2ncn(CC(C)C)c(=O)c2c1C(=O)NCCc1ccc(Cl)cc1 7.68%
CCC1CCCCN1Cc1c(O)ccc2c(=O)c(Oc3ccccc3Cl)c(C(F)(F)F)oc12 (stereo unspecified) -5.05%
Cc1cccn2c3c(c(=O)nc12)C(c1cccc(F)c1)CC(=O)N3 (stereo unspecified) 11.8%
CCc1ccc(NC(=O)Cn2ccn(-c3ccc(OC)cc3)c(=O)c2=O)cc1 -7.9%
Cc1ccc(N(C)C(=O)CC(C)S(=O)(=O)c2ccc3c(c2)NC(=O)CO3)cc1 (stereo unspecified) -7.58%
CC(=O)c1ccc(S(=O)(=O)Nc2ccc(-c3ccc(N4CCCCC4)nn3)cc2)cc1 5.16%
COc1ccc(Cn2c(C(=O)O)c(CNC3CCCC3)c3ccc(C)cc32)cc1 7.75%
CCC(=O)N1c2ccccc2CC1C(=O)N1CCN(c2cccc(OC)c2)CC1 (stereo unspecified) 3.62%
CCOc1ccc(OCC)c(NS(=O)(=O)c2c(C)[nH]c(=O)[nH]c2=O)c1 -4.73%
O=C(Cn1cnc2nc3c(cc2c1=O)CCCC3)N1CCN(c2cccc(C(F)(F)F)c2)CC1 4.52%
N[C@@H](Cc1c[nH]c2ccc(O)cc12)C(=O)O 1.56%
Cc1ccc(C)c(NC(=O)CSc2c(C)cnc3c2c(=O)n(C)c(=O)n3C)c1 12.8%
CCOc1ccc(NC(=O)CSc2nc(-c3cccc(Cl)c3)nc3c2Cc2c(CO)cnc(C)c2O3)cc1 14.9%
COC(=O)c1cc2oc(C)cc2n1Cc1cc(C)ccc1C 13.8%
Cc1cccc(NC(=O)CC2Nc3cccc4cccc(c34)NC2=O)c1 (stereo unspecified) -0.83%
COc1cccc(NC(=O)CCc2nc(-c3ccc(C(C)(C)C)cc3)no2)c1 -8.23%
CN(c1ncnc2c1c(-c1ccccc1)cn2-c1cccc(Cl)c1)C1CCCCC1 5.09%
Cc1ccc(-c2nnn3c2nc(NCCc2ccccc2)c2ccccc23)cc1 13.2%
Cc1cc2c(cc1S(=O)(=O)CCC(=O)N(C)C1CCCCC1)OCC(=O)N2 11.2%
COCCN(Cc1ccco1)C(=O)Cn1ncc2c([nH]c3ccccc32)c1=O -9.6%
CCCCN1C(=O)CN(C2CCCCCC2)C(=O)C1c1ccc(OCC)c(OC)c1 (stereo unspecified) -8.05%
Cc1ccc(C)c(C(=O)CSc2nc(-c3ccccc3)nc3c2CCCC3)c1 -15.9%
Cc1c(Cl)cccc1NC(=O)N1CCC(CN2CCOCC2)CC1 9.36%
Cc1cccc(-n2c(=O)c3c(c4cc(C)ccc4n3C)n(C)c2=O)c1 -0.459%
COc1cc(C)c(Sc2cnc(NC(=O)c3ccc(CNC(C)C(C)(C)C)cc3)s2)cc1C(=O)N1CCN(C(C)=O)CC1 (stereo unspecified) 19%
Cc1ccc(-c2nnc(Nc3cccc(Br)c3)c3ccccc23)cc1S(=O)(=O)N1CCCCC1 -1.6%
COc1ccc(C2C(C(=O)Nc3ccc(C)cc3C)=C(C)Nc3nc(SC)nn32)cc1OC (stereo unspecified) -8.92%
COc1ccc(NC(=O)C2CCN(S(=O)(=O)c3cn(C)cn3)CC2)cc1Cl 12.1%
CCOc1ccccc1NC(=O)C1CCCN(c2ncnc3onc(-c4ccc(F)cc4)c23)C1 (stereo unspecified) 1.35%
CC(C)C(=O)Nc1nnc(S(=O)(=O)N(C)Cc2ccc(F)cc2)s1 4.23%
O=C(c1ccc([N+](=O)[O-])cc1)N(Cc1ccco1)c1ccccn1 -9.35%
CC(C)n1nc(-c2ccc3oc(N)nc3c2)c2c(N)ncnc21 6.85%
COc1ccc(S(=O)(=O)Nc2ccc3c(c2)sc(=O)n3C)cc1Cl -2.76%
COc1ccccc1CNC(=O)c1ccc(-c2nc(CS(=O)c3ccc(C)cc3)c(C)o2)cc1 (stereo unspecified) 1.21%
Cc1cc(C)cc(NC(=O)c2cn3c4c(ccc(Cl)c4c2=O)OC(C)C3)c1 (stereo unspecified) 0.0887%
CCCCn1c(=O)c2oc3ccccc3c2n(Cc2ccc(OC)cc2)c1=O -16%
CCOC(=O)c1ccc(NC(=O)CCCn2nc(C)c3sc4ccccc4c3c2=O)cc1 3.96%
CSc1ncc(C(=O)NCc2ccc(F)cc2)c(-c2ccccc2)n1 -8.33%
CCOc1ccc(OCCOCCn2c(-c3ccc(Cl)cc3)nc3ccccc3c2=O)cc1 -8.85%
Cc1cccc(-c2nc(SCCCOc3cc(C)c(Cl)c(C)c3)n3[nH]c(=O)cc3n2)c1 -2.34%
COC(=O)CC(=O)CSc1nc2cc(C(=O)NC(C)C)ccc2c(=O)n1CCc1ccccc1 51.6%
Cc1ccc(C(=O)OC2=C(C(=O)c3ccccc3)N(C)S(=O)(=O)c3ccccc32)cc1 -11.5%
CCCc1oc2ccc(NS(=O)(=O)c3ccc(OCC)cc3)cc2c1C(=O)OCC -1.24%
Cc1oc2ncn(CC(C)C)c(=O)c2c1C(=O)NCc1cccc(Cl)c1 5.1%
O=C(CN1C(=O)COc2ccc(S(=O)(=O)N3CCOCC3)cc21)NCc1ccc(Cl)cc1 -22%
CCN(C(=O)CSc1nnc(-c2cc3occc3n2C)n1-c1ccccc1C)c1ccccc1 1.54%
Cc1ccc(Cn2c(C(=O)Nc3ccc(Cl)cc3)cc3sccc32)cc1 -3.38%
Cc1ccc(-c2onc(C)c2C)cc1S(=O)(=O)N1CCC(C)CC1 -34%
CCc1ccc(-c2nc3c(c(SCc4ccccc4)n2)Cc2c(CO)cnc(C)c2O3)cc1 -1.24%
CC(C)Oc1ccc(CNC(=O)c2cc3cccc4c3n2CC(C)S4)cc1 (stereo unspecified) 3.33%
CCOC(=O)N1CCC(NC(=O)c2ccc3c(c2)N(Cc2ccccc2)C(=O)c2ccccc2S3(=O)=O)CC1 -20.4%
COc1ccc(Br)c2c1-c1nc(NC(=O)c3ccc(F)cc3)sc1C2 4.46%
CCOc1ccccc1CNC(=O)C(CC)n1nc(C)c2c(C)n(-c3ccccc3)nc2c1=O (stereo unspecified) -14.8%
Cc1c(C(=O)NCc2ccccc2Cl)sc2nc3n(c(=O)c12)CCCC3 2.29%
COc1cc2c(cc1OC)C(COc1ccc3c(C)cc(=O)oc3c1)N(C(=O)c1ccc(C)cc1)CC2 (stereo unspecified) 10.2%
Cc1ccc(C)c(NC(=O)CSc2nc(=O)n(CCN3CCOCC3)c3c2CCC3)c1 -3.89%
CCC(=O)N1c2ccccc2CC1C(=O)NCCCN1CCN(c2cccc(Cl)c2)CC1 (stereo unspecified) 6.12%
CC(C)Cn1cc(NC(=O)NCc2ccc(Cl)cc2)c2ccccc2c1=O -9.2%
COc1ccc(C2c3c(n(C)c4ccccc34)C(=O)N2CC(=O)Nc2c(C)cc(C)cc2C)cc1 (stereo unspecified) -3.61%
COc1ccc(C(=O)CN2CCN(S(=O)(=O)c3ccc(F)cc3)CC2)cc1 7.89%
O=C(Nc1ccc(Cl)cc1)c1ccc2oc(=O)n(Cc3ccccc3)c2c1 41.8%
Cc1ccc2c(c1)C(=O)OC(C(=O)Nc1ccc(C(=O)O)cc1)C2 (stereo unspecified) -27.8%
O=C(c1cc(-c2ccc(Br)cc2)n[nH]1)N1CCN(S(=O)(=O)c2ccc(Br)s2)CC1 -23.4%
